# Laboratory results as given in the supplement of paper PMC8728848.
# This is one part of the list.
# B1: AT1G15820(2) (Arabidopsis thaliana), Q9LMQ2 (protein)
# chain: MAMAVSGAVLSGLGSSFLTGGKRGATALASGVGTGAQRVGRKTLIVAAAAAQPKKSWIPAVKGGGNFLDPEWLDGSLPGDFGFDPLGLGKDPAFLKWYREAELIHGRWAMAAVLGIFVGQAWSGVAWFEAGAQPDAIAPFSFGSLLGTQLLLMGWVESKRWVDFFNPDSQSVEWATPWSKTAENFANYTGDQGYPGGRFFDPLGLAGKNRDGVYEPDFEKLERLKLAEIKHSRLAMVAMLIFYFEAGQGKTPLGALGL
# How the values were obtained:
# Test in all cases: glycan array binding signal (z-score within array); higher = stronger binding
# Settings in all cases: glycan notation: IUPAC condensed, linker removed
# [1] = target: Fuc(a1-2)[GalNAc(b1-3)]Gal
# In short: (§1)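 Negative Z-scores can be read as non-binding. The Z-score is calculated within each array and then averaged across arrays of one protein sequence at different concentrations or buffers and across linkers. Arrays, 3228 in all, were curated from the Consortium for Functional Glycomics database and kept only where the protein sequence was available.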
# Fuc(a1-3)GlcNAc = target: Fuc(a1-3)GlcNAc
# In short: as §1
# [2] = target: Fuc(a1-3)[Gal(b1-4)]Glc6S
# In short: as §1
# [3] = target: Fuc(a1-3)[Gal(b1-4)]GlcNAc
# In short: as §1
# [4] = target: Fuc(a1-3)[Gal(b1-4)]GlcNAc(b1-2)Man
# In short: as §1
# [5] = target: Fuc(a1-3)[Gal(b1-4)]GlcNAc(b1-2)Man(a1-3)[Fuc(a1-3)[Gal(b1-4)]GlcNAc(b1-2)Man(a1-6)]Man(b1-4)GlcNAc(b1-4)GlcNAc
# In short: as §1
# [6] = target: Fuc(a1-3)[Gal(b1-4)]GlcNAc(b1-2)Man(a1-3)[Fuc(a1-3)[Gal(b1-4)]GlcNAc(b1-2)Man(a1-6)]Man(b1-4)GlcNAc(b1-4)[Fuc(a1-6)]GlcNAc
# In short: as §1
# [7] = target: Fuc(a1-3)[Gal(b1-4)]GlcNAc(b1-3)Gal(b1-3)[Fuc(a1-4)]GlcNAc
# In short: as §1
# [8] = target: Fuc(a1-3)[Gal(b1-4)]GlcNAc(b1-3)Gal(b1-4)[Fuc(a1-3)]GlcNAc
# In short: as §1
# [9] = target: Fuc(a1-3)[Gal(b1-4)]GlcNAc(b1-3)Gal(b1-4)[Fuc(a1-3)]GlcNAc(b1-3)Gal(b1-4)[Fuc(a1-3)]GlcNAc
# In short: as §1
# [10] = target: Fuc(a1-3)[Gal(b1-4)]GlcNAc(b1-3)GalNAc
# In short: as §1
# [11] = target: Fuc(a1-3)[Gal(b1-4)]GlcNAc(b1-6)GalNAc
# In short: as §1
# [12] = target: Fuc(a1-3)[Gal(b1-4)]GlcNAc(b1-6)[Gal(b1-3)GlcNAc(b1-3)]Gal(b1-4)Glc
# In short: as §1
# [13] = target: Fuc(a1-3)[Gal(b1-4)]GlcNAc6S
# In short: as §1
# [14] = target: Fuc(a1-3)[Gal3S(b1-4)]Glc
# In short: as §1
# [15] = target: Fuc(a1-3)[Gal3S(b1-4)]GlcNAc
# In short: as §1
# [16] = target: Fuc(a1-3)[Gal3S(b1-4)]GlcNAc6S
# In short: as §1
# [17] = target: Fuc(a1-3)[GalNAc(b1-4)]GlcNAc
# In short: as §1
# [18] = target: Fuc(a1-3)[GalNAc(b1-4)]GlcNAc6S
# In short: as §1
# Fuc(a1-4)GlcNAc = target: Fuc(a1-4)GlcNAc
# In short: as §1
# Fuc(b1-3)GlcNAc = target: Fuc(b1-3)GlcNAc
# In short: as §1
# Gal(a1-2)Gal = target: Gal(a1-2)Gal
# In short: as §1
# Gal(a1-3)Gal = target: Gal(a1-3)Gal
# In short: as §1
# Gal(a1-3)Gal(b1-3)GlcNAc = target: Gal(a1-3)Gal(b1-3)GlcNAc
# In short: as §1
# [19] = target: Gal(a1-3)Gal(b1-3)GlcNAc(b1-2)Man
# In short: as §1
# [20] = target: Gal(a1-3)Gal(b1-3)GlcNAc(b1-2)Man(a1-3)[Gal(a1-3)Gal(b1-3)GlcNAc(b1-2)Man(a1-6)]Man(b1-4)GlcNAc(b1-4)GlcNAc
# In short: as §1
# [21] = target: Gal(a1-3)Gal(b1-3)GlcNAc(b1-3)GalNAc
# In short: as §1
# [22] = target: Gal(a1-3)Gal(b1-3)GlcNAc(b1-6)GalNAc
# In short: as §1
# [23] = target: Gal(a1-3)Gal(b1-3)[Fuc(a1-4)]GlcNAc(b1-2)Man(a1-3)[Gal(a1-3)Gal(b1-3)[Fuc(a1-4)]GlcNAc(b1-2)Man(a1-6)]Man(b1-4)GlcNAc(b1-4)GlcNAc
# In short: as §1
# Gal(a1-3)Gal(b1-4)Glc = target: Gal(a1-3)Gal(b1-4)Glc
# In short: as §1
binder,measurement,setting,value
B1,glycan array binding signal (z-score),[1],-0.28
same,glycan array binding signal (z-score),Fuc(a1-3)GlcNAc,-0.399
same,glycan array binding signal (z-score),[2],-0.283
same,glycan array binding signal (z-score),[3],-0.172
same,glycan array binding signal (z-score),[4],-0.204
same,glycan array binding signal (z-score),[5],-0.309
same,glycan array binding signal (z-score),[6],-0.44
same,glycan array binding signal (z-score),[7],0.119
same,glycan array binding signal (z-score),[8],-0.308
same,glycan array binding signal (z-score),[9],0.986
same,glycan array binding signal (z-score),[10],-0.48
same,glycan array binding signal (z-score),[11],0.302
same,glycan array binding signal (z-score),[12],-0.49
same,glycan array binding signal (z-score),[13],0.079
same,glycan array binding signal (z-score),[14],-0.097
same,glycan array binding signal (z-score),[15],-0.47
same,glycan array binding signal (z-score),[16],-0.271
same,glycan array binding signal (z-score),[17],1.79
same,glycan array binding signal (z-score),[18],-0.326
same,glycan array binding signal (z-score),Fuc(a1-4)GlcNAc,-0.407
same,glycan array binding signal (z-score),Fuc(b1-3)GlcNAc,-0.152
same,glycan array binding signal (z-score),Gal(a1-2)Gal,-0.348
same,glycan array binding signal (z-score),Gal(a1-3)Gal,0.079
same,glycan array binding signal (z-score),Gal(a1-3)Gal(b1-3)GlcNAc,-0.492
same,glycan array binding signal (z-score),[19],-0.359
same,glycan array binding signal (z-score),[20],-0.093
same,glycan array binding signal (z-score),[21],-0.587
same,glycan array binding signal (z-score),[22],-0.482
same,glycan array binding signal (z-score),[23],-0.233
same,glycan array binding signal (z-score),Gal(a1-3)Gal(b1-4)Glc,-0.501
